Measured values published in PubChem BioAssay AID488969 (Vanderbilt High Throughput Screening Facility, 2010).
Over roughly 110,000 compounds, “z-score” has its median near -0.1; the highest 2% begin near 2. Some of the results follow. Active and inactive are the calls of the source.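 How the source made its calls: active means z-score in the third read window above 3 or below -3; inactive means the rest.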

target: Metabotropic glutamate receptor 8 (Rattus norvegicus) (UniProt P70579); assay: rat mGluR8 modulators via GIRK flux, primary screen, cell-based, thallium flux, HTS (AID 488969); settings: HEK293 rat mGluR8, GIRK (G protein-gated inwardly rectifying potassium channel) thallium flux, FluoZin2; at 10 µM; stronger effect = higher value; submaximal glutamate (EC20) added with thallium
Chain of UniProt P70579 (P70579 whole entry, looked up): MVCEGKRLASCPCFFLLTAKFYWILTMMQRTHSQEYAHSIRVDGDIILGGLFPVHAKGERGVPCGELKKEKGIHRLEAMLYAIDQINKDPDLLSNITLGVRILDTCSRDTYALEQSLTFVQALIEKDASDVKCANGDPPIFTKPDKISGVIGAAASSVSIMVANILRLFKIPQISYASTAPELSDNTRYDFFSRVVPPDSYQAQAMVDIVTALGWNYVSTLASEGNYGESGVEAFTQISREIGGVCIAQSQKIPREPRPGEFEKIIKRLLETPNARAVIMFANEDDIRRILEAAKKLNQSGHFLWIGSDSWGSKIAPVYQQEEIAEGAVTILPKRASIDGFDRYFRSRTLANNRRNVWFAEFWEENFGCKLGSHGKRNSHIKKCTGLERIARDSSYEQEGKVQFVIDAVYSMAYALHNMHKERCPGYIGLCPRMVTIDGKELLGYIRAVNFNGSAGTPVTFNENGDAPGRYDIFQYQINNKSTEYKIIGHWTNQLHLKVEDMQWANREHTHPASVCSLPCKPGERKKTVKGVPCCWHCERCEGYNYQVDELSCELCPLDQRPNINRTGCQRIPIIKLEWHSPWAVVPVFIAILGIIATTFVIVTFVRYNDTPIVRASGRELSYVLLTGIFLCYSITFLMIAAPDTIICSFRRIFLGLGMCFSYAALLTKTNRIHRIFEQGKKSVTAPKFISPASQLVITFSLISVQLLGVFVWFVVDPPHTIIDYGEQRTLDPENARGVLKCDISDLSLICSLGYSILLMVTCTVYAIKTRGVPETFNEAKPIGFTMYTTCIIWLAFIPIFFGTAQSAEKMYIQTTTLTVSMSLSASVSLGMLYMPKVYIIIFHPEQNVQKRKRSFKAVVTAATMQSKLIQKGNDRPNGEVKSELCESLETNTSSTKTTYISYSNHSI

SMILES	z-score
Cc1nn(C)c(C)c1NC(=O)CCSc1nc(-c2ccco2)cc(C(F)(F)F)n1	-1.15
O=C(CSc1nc2c(c(=O)n1-c1ccc(F)cc1)SCC2)Nc1ccc2c(c1)OCO2	-0.281
Nc1nc2ccc(O)cc2s1	-0.141
CCOc1cc(/C=C2/C(=O)ON=C2C)ccc1OCc1ccc(F)cc1	-0.962
CCC(=O)N1CCN(c2ccc(NC(=O)c3ccco3)cc2)CC1	0.753
COc1ccc(N(CC(=O)NC2CCCC2)C(=O)Cn2nnc(-c3ccc(C)cc3)n2)cc1	active: -3.78
COc1ccc2c(C)cc(N3CCN(c4ccc(F)cc4)CC3)nc2c1	-0.288
CCCCCCC1C(C#N)=C(N)OC2=C1C(=O)CCC2 (stereo not given)	-0.102
C=CCOc1ccccc1/C=N/NC(=O)c1ccc(Cl)cc1Cl	0.0573
O=C(NCc1ccco1)c1cccc(N2CCCC2=O)c1	-0.152
Cc1ccc(-c2nnc(SCc3ccccc3F)o2)cc1	0.708
COc1ccc(-c2nn(-c3ccccc3)cc2/C=N/NC(=O)c2cccc(S(=O)(=O)Nc3ccccc3Cl)c2)cc1	0.244
COc1cc(C(=O)Oc2ccccc2/C=N/NC(=O)c2ccc(Cl)cc2)cc(OC)c1OC	-0.169
COc1ccccc1C(=O)NNC(=O)CCCN1C(=O)/C(=C/c2cccs2)SC1=S	0.254
O=C(CCC(=O)c1ccc[nH]1)c1ccc(Cl)cc1	1.33
CCOc1cc(C)nc(N2CCCC(C(=O)NCc3ccccc3F)C2)n1 (stereo not given)	-0.469
COc1ccc(C2C(C(=O)N3CCC(C)CC3)c3ccccc3C(=O)N2C)cc1 (stereo not given)	0.0244
CCOCc1cc(C)[nH]c(=O)c1C#N	-0.039
COc1ccc(Nc2nnc(-c3ccc(N4CCOCC4)c([N+](=O)[O-])c3)c3ccccc23)cc1	-0.163
Cc1cc(C)cc(Oc2ccc(C(F)(F)F)cc2C#N)c1	0.3
CC(=O)Oc1ccc(-c2csc(Nc3cccnc3)n2)cc1	-0.636
CCc1cc(C(=O)NNC(=S)Nc2cccc(C)c2)cs1	active: 7.17

SMILES	z-score
O=S(=O)(NCc1ccc2c(c1)OCO2)c1cccc(S(=O)(=O)N2CCOCC2)c1	0.771
O=C1CC(c2ccco2)CC(O)=C1C=Nc1cc(Cl)ccc1Cl (stereo not given)	-0.00986
COc1ccc(NC(=O)c2ccccc2NC(=O)CSc2ccc(C)cc2)cc1	-0.388
Nc1c(C(=O)Nc2ccccc2)sc2nc3c(c(-c4ccco4)c12)CCCC3	-0.627
Cc1cccc(OCc2nc(-c3ccccn3)n[nH]2)c1	-0.872
Cc1ccc2nsnc2c1S(=O)(=O)NCc1ccc2c(c1)OCO2	0.73
O=C1CN(C(=O)CCN2CCOCC2)C(c2ccccc2)c2cc(Br)ccc2N1 (stereo not given)	-0.163
Oc1ccc2ccccc2c1C1Nc2cccc3cccc(c23)N1	0.097
COc1ccc(NC(=O)C2CCCN(S(=O)(=O)c3cccc4cccnc34)C2)cc1OC (stereo not given)	-0.263
CSCCC(N=CC1=C(O)CC(C)(C)CC1=O)C(=O)O (stereo not given)	-0.341
CCn1cc(CNC(=O)CSc2nc(-c3ccc(OC)c(OC)c3)cc(C(F)(F)F)n2)c(C)n1	-0.182
O=C(c1ccccc1)N(Cc1ccco1)C1CCS(=O)(=O)C1 (stereo not given)	0.334
O=C(OCCN1C(=O)c2ccccc2C1=O)c1cc(=O)[nH]c2ccccc12	-0.212
COc1ccc(C2CC(c3ccccc3)Nc3nc(NC(=O)c4cccs4)nn32)cc1 (stereo not given)	-0.679
CCOc1ccccc1NC(=O)CN(C)S(=O)(=O)c1ccc(OC)c(C)c1	-0.359
O=CN1CCc2scc[n+]2-c2ccccc21	-0.0895
Cc1cc(C(=O)NN=C2C3CC4CC(C3)CC2C4)c2ccccc2n1	-0.0938
CC(=O)N(c1ccc(C(C)C)cc1)C1C=CS(=O)(=O)C1 (stereo not given)	0.709
Cc1c(NS(=O)(=O)c2cccc3nsnc23)c(=O)n(-c2ccccc2)n1C	0.0932
COCCN(C(=S)Nc1cccc(OC)c1)C1CCN(C(C)=O)CC1	0.263
O=C(CN1CCOCC1)Nc1cccc(C(=O)Nc2cccc(C(F)(F)F)c2)c1	-0.724
Cc1ccc(CNC(=O)CSc2ncccn2)cc1	0.401

SMILES	z-score
O=C(NN1C(=O)/C(=C/c2cccnc2)SC1=S)C(c1ccccc1)c1ccccc1	-0.0669
COc1ccc(C2CC(=O)c3cnc(NC(=O)c4cccc(OC)c4)nc3C2)cc1 (stereo not given)	-0.697
COCCN(C(=O)c1csnn1)C(C(=O)NC(C)(C)C)c1cccc(OC)c1 (stereo not given)	-0.202
Cc1c(C(=O)O)sc2nc3n(c(=O)c12)CCC(C)CC3 (stereo not given)	0.233
COc1ccc(N(CC(=O)Nc2ccccc2SC)S(C)(=O)=O)cc1OC	0.573
Cc1nc2ccc(NS(=O)(=O)c3ccc4c(c3)OCCO4)cc2s1	active: 3.48
O=C(OCC#CCSc1nnc(-c2ccncc2)o1)c1sc2ccccc2c1Cl	2.87
CCc1ccc2c(c1)C1(NN=C(c3cccc4ccccc34)S1)C(=O)N2 (stereo not given)	active: 4.02
O=S(=O)(NCc1cc(-c2ccccc2Cl)no1)c1ccccc1	-0.26
Cc1ccc(NC(=O)CN2C(=O)NC(Cc3ccccc3)C2=O)cc1 (stereo not given)	0.124
NC(=O)C1CC(=O)N(c2ccc(OCC(=O)Nc3cccc(C(F)(F)F)c3)cc2)C1 (stereo not given)	-0.403
C=CCN1CN(S(=O)(=O)c2cccs2)c2nc3ccccc3nc21	-0.865
CCN1C(C(=O)c2ccccc2)=C(Nc2ccccc2C)c2ccccc2S1(=O)=O	-0.411
COc1cc(NC(=O)c2ccco2)ccc1NC(=O)C(C)C	0.332
CCN(CC)CCNC(=O)c1c(C)n(-c2ccccc2)c2cc(Br)c(OC)cc12	2.84
C/C(=N/NC(=O)c1ccccn1)c1ccco1	-0.0123
O=C(C[n+]1cc(-c2ccc(Cl)c(Cl)c2)n2c1CCC2)OCc1ccccc1	0.0701
CC(=O)c1c(C)oc2ccc(N(C(C)=O)S(=O)(=O)c3ccc(Cl)c([N+](=O)[O-])c3)cc12	0.653
COc1cc(CNCCc2ccc(S(N)(=O)=O)cc2)ccc1OCC(=O)NC1CCCCC1	-0.0552
CN(c1ccc(C(=O)NCc2cccnc2)cc1)S(C)(=O)=O	0.374
COc1ccccc1Nc1nc(C)cc(C)c1C(N)=O	-0.333
O=C1CCC(=O)N1OCCOc1ccc2c(c1)CCC2	0.0895

SMILES	z-score
O=C(OCCN=C1NS(=O)(=O)c2ccccc21)c1ccncc1	0.427
CC(=O)Oc1ccc([N+](=O)[O-])cc1N1C(=O)c2ccccc2C1=O	-0.388
CCOc1ccccc1N(CC(=O)Nc1ccccc1C(=O)NCc1ccco1)S(C)(=O)=O	0.306
Cc1ccc(S(=O)(=O)c2c(N)n(CCN3CCOCC3)c3nc4ccccc4nc23)cc1C	-0.192
Nc1ccccc1SCC(=O)Nc1ccc(N2CCOCC2)cc1	2.53
O=C(NCCNCc1ccc(F)cc1)c1ccco1	-0.0503
CC(=O)c1cn(CC(=O)Nc2ccc(C)cc2C)c2ccccc12	0.372
CNC(=O)CSc1nc(-c2ccccc2)c(-c2ccccc2)[nH]1	-0.0369
Cc1sc2ncnc(OCC(=O)Nc3ccc4c(c3)OCCO4)c2c1C	-0.098
COc1ccc2cc3cc(C(=O)N4CCN(c5ccccc5)CC4)oc3nc2c1	0.408
CCN1C(=O)c2cccc3c(S(=O)(=O)NC(Cc4c[nH]c5ccccc45)C(=O)O)ccc1c23 (stereo not given)	0.241
CC(C)CCOCC(O)CCC(=O)NNC(=S)Nc1ccccc1 (stereo not given)	-2.1
Oc1cccc2ccc(/C=C/c3cccs3)nc12	1.14
CCN(CC)CCN1C(=O)C(=O)/C(=C(/O)c2cnn(-c3ccccc3)c2C)C1c1cccnc1 (stereo not given)	0.34
C=CCNC(=S)NNC(=O)COc1c(Cl)cc(Cl)cc1Cl	0.71
C/C=C/c1ccccc1OCc1ccc(C(=O)OC)o1	0.425
CCSc1ncc(/C=N/Nc2ccc(F)cc2)n1C	0.0175
CN(C=O)CP(=O)(O)CCN1CCCC1=O	-2.28
COCCCNC(=O)/C(C#N)=C/c1ccc(OCC(=O)O)c(OC)c1	-0.149
Cc1cc(NS(=O)(=O)N(C)C)ccc1C(C)C	-0.428
COc1ccc2c(-c3ccccc3)cc(=O)[nH]c2c1	-0.684
O=C(NCC(c1cccnc1)N1CCN(c2ccc(F)cc2)CC1)OCc1ccccc1 (stereo not given)	-1.47

SMILES	z-score
Cc1ccc(OCc2nn3c(-c4ccco4)nnc3s2)cc1	-1.14
COc1ccc(S(=O)(=O)N(CCN2CCOCC2)Cc2cc(OC)ccc2OC)cc1	-0.389
Cc1cc(NCCO)c2ccccc2n1	0.274
CCOC(=O)CNC1CC(=O)N(c2cccc(Cl)c2)C1=O (stereo not given)	-0.279
NC(=O)c1c(NC(=O)CN2C(=O)CCC2=O)sc2c1CCCCC2	0.585
CCOC(=O)N1CCN(CC(O)COc2ccc(C)cc2C(C)(C)C)CC1 (stereo not given)	-0.0543
CCCCC(=O)NC(=S)NNS(=O)(=O)c1ccccc1	0.0312
CCn1cc(CNC(=O)CCc2ccc(OC)cc2)cn1	0.0492
O=C(NCc1n[nH]c(=S)n1-c1ccc(F)cc1)c1ccco1	-0.0102
Cc1nnc(OCc2nc3ccccc3n2C)c2ccccc12	-0.493
O=C(COC(=O)CCc1c[nH]c(=O)[nH]1)Nc1ccccc1Cl	0.146
O=S1(=O)CCC(NS(=O)(=O)/C=C/c2ccccc2)C1 (stereo not given)	-0.00689
CNC(=S)N1N=C(c2ccc(Br)cc2)CC1c1ccc(OC)cc1 (stereo not given)	-0.146
CCn1c(-c2ccc(F)cc2)cnc1SCC(=O)N1CCc2ccccc21	-0.138
Cc1cnn(-c2cc(N/N=C/c3cccc(F)c3)ncn2)c1	-0.225
COC(=O)c1sc(NC(=O)c2ccc(OC)cc2OC)nc1C	0.414
COc1ccccc1C(=O)Nc1cc2ccccc2oc1=O	0.011
CN(c1ccc(C(=O)NCCSC(C)(C)C)cc1)S(C)(=O)=O	-0.208
CC(NC(=O)Cn1c(=O)[nH]c2ccsc2c1=O)C12CC3CC(CC(C3)C1)C2 (stereo not given)	-1.91
COc1cc(OC)nc(NC(=O)CSc2nc3ccccc3[nH]2)n1	0.673
COc1ccc(NC(=O)Cn2nnc(-c3ccccc3NC(=O)c3ccco3)n2)cc1	-0.441
Cc1cc(C(=O)CSc2nnnn2C)c(C)n1CCc1ccc(F)cc1	-0.0216
